# Measured values published in PMC4336329 (PLoS ONE, 2015).
# Screen size: about 310,000 compounds; about 2,200 (0.71%) showed an effect of 50% or more. Effects have a minus sign here. Some of the results follow.
# Target: human ether-à-go-go-related gene (hERG) potassium channel (human, UniProt Q12809)
# Test: primary screen, population patch clamp on CHO cells stably expressing hERG
# Sequence of human ether-à-go-go-related gene (hERG) potassium channel (Q12809 whole entry, looked up): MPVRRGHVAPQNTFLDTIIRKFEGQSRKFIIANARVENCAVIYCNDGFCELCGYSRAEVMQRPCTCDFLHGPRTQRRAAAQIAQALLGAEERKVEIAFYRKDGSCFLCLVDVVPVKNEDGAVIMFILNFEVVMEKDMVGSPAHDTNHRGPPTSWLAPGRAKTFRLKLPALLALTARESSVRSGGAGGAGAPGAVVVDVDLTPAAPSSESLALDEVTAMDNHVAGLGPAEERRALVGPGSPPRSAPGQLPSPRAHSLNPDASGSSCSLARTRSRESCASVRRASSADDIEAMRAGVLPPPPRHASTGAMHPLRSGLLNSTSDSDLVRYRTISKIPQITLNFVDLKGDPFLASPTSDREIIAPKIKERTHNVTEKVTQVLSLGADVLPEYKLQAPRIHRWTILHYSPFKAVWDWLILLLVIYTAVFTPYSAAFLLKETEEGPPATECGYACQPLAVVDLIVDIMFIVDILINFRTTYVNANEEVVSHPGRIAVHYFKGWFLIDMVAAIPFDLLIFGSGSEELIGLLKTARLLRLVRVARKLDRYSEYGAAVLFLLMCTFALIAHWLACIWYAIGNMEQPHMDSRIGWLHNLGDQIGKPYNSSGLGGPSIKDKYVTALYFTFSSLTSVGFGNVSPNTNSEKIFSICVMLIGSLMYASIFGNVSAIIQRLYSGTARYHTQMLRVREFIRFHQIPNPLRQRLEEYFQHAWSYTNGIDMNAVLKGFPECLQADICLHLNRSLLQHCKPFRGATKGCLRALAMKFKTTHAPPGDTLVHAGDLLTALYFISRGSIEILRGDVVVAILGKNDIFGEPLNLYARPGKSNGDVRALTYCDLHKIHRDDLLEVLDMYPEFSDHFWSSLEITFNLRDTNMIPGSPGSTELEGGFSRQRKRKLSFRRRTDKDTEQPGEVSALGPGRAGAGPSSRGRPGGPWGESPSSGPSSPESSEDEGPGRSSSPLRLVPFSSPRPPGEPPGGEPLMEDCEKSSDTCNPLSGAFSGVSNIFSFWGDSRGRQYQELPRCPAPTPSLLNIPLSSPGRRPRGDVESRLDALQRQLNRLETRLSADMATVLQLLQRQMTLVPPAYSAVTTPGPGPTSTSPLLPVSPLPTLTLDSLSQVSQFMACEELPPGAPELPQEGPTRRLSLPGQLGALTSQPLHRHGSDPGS
row,Compound,"hERG current change (%, negative = inhibition) at 1uM"
1,CC(=O)Nc1ccc(S(=O)(=O)NCCC(=O)NCCOc2ccccc2)cc1,4.7%
2,Cc1ccc(/C=C/C(=O)c2c(C)cc(C)[nH]c2=O)cc1,-1.54%
3,O=C(CNC(=O)c1cccs1)NCC(=O)OCc1ccc(F)cc1,0.143%
4,O=C(NCCC1=CCCCC1)C1CCN(C(=O)Nc2ccccc2)CC1,9.51%
5,COc1cc(C(=S)N2CCOCC2)ccc1OC(=O)c1ccccc1C,14.9%
6,CCc1ccccc1S(=O)(=O)Cc1ccc(C(=O)N2CCN(c3ccccn3)CC2)o1,-11.4%
7,Cc1ccc2c(c1)c1ncnc(N3CCOCC3)c1n2C,5.69%
8,Cc1ccc(CCNC(=O)CCS(=O)(=O)Cc2ccc(C)cc2)cc1,12.4%
9,CCOc1ccc(C(=S)NC2CCCCC2)cc1,1.9%
10,C/C(=N\NC(=O)C1(C)CC1(Br)Br)c1ccc([N+](=O)[O-])cc1 (stereo not shown),9.87%
11,COc1cc(-c2noc(-c3cccc(Cl)c3)n2)cc(OC)c1OC,2.51%
12,CC(C)Cc1nc2ccc(N)cc2[nH]1.Cl,0.228%
13,O=C(Nc1ccccc1N1CCN(C(=O)c2ccccc2)CC1)c1cc(Br)ccc1Cl,4.27%
14,CCn1ccc(C(=O)Nc2sc3c(c2C(=O)OC)CCC3)n1,12.5%
15,CC(C)c1nnc(NC(=O)c2cccc(NC(=O)C(F)(F)F)c2)s1,7.74%
16,Cc1c(OC(C)C(=O)NCCCN2CCOCC2)ccc2c1oc(=O)c1ccccc12 (stereo not shown),5.53%
17,COc1cc2c(C(=O)OCCN(C)C)c(CSc3ccccc3)n(C)c2cc1Br,5.05%
18,CCCN1CCC[C@@H]2Cc3nc(N)ncc3C[C@H]21.Cl,8.86%
19,Cc1ccc(C)c(S(=O)(=O)Nc2ccc3cn[nH]c3c2)c1,14.1%
20,Cc1ccnc(NC(=S)N2CCN(c3cccc(C(F)(F)F)c3)CC2)c1,13.6%
21,CCOc1cc2[nH]c(=S)n(CC3CCCO3)c(=O)c2cc1OCC (stereo not shown),9.67%
22,Clc1cccc(-c2nnc3n2CCCCC3)c1,8.23%
23,COc1ccc(-c2csc3ncnc(N4CCN(S(=O)(=O)c5cccc(F)c5)CC4)c23)cc1,7.12%
24,C=CCNc1sc(C(=O)C(C)(C)C)c(N)c1C#N,11.2%
25,COc1cccc(/C=C2\Oc3cc(OCC(=O)N4Cc5ccccc5C[C@H]4C(=O)O)ccc3C2=O)c1,12.6%
